# Test results: PubChem BioAssay (Tox21)
# Inconclusive results, whose numbers are uncertain, are shown with a selection of clear calls. Where the call is inconclusive, the potency comes from a doubtful curve fit. Calls of active or inactive are those of the source. The call rests on the fitted dose curve; in most records, active means well fitted curve in the direction sought with a large enough effect in the repeat runs; inconclusive means weak or mixed curves; inactive means no such curve, though single readings can be large; an effect the other way counts as inactive or inconclusive.
# Target: Cytochrome P450 1A2 (Homo sapiens) (UniProt P05177)
# Chain of UniProt P05177 (P05177 whole entry, looked up): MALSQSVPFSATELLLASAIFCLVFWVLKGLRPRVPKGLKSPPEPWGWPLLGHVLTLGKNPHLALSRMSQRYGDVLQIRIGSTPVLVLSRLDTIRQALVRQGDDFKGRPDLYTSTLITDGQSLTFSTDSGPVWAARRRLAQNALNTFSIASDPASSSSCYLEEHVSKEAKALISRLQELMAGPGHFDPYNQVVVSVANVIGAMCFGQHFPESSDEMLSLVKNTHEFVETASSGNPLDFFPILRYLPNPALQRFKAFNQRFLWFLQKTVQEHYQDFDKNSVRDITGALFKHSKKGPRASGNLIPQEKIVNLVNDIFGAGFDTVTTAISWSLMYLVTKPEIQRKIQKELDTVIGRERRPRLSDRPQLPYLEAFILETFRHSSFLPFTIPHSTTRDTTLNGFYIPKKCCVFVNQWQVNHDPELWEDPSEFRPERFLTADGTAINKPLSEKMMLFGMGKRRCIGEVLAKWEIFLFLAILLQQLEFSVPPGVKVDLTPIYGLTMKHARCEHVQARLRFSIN
# Test: Cytochrome P450 Family 1 Subfamily A Member 2 (CYP1A2) small molecule antagonists: luciferase reporter qHTS assay (AID 1671199)
# Settings: P450-Glo CYP1A2 enzyme, luciferin luminescence, 1 h; series mostly up to 115 µM
# Outline: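 P450-Glo CYP1A2 enzyme–proluciferin substrate mix with compound 10 min at room temperature, then NADPH regeneration 1 h at room temperature. Luciferin detection reagent added, luminescence read after 20 min; furafylline positive control.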
# Further: nearly all actives have a fitted effect of over 50% in size.
# Potency means the concentration at half of the fitted maximal effect; tags describe the fitted curve by direction and shape.
row,Compound,Potency
1,C/C(=C(/OCCOc1ccc(Cl)cc1)c1ccc(Cl)cc1Cl)n1ccnc1,active: 2.29 µM
2,CC(=O)c1ccccc1,"inconclusive: 71 µM [inhibitor, partial curve, poor fit]"
3,CCN(CCCc1ccccc1)CCCc1ccccc1,active: 7.23 µM
4,Cc1ccccc1N=Nc1ccc(N=Nc2c(O)ccc3ccccc23)c(C)c1,active: 13.8 µM
5,Cc1oc(-c2ccccc2)nc1CCOc1cccc2c1ccn2CCC(=O)O,inactive
6,CCCCCCCC#N,"inconclusive: 71 µM [inhibitor, partial curve, poor fit]"
7,CCCN(CCc1cccs1)[C@H]1CCc2c(O)cccc2C1,"inconclusive: 27.5 µM [inhibitor, partial curve]"
8,OC[C@H]1O[C@@H](O[C@@H]2[C@@H](CO)O[C@](O)(CO)[C@H]2O)[C@H](O)[C@@H](O)[C@H]1O,inactive
9,CCOC(=O)c1ccc(OC(=O)CCCCCN=C(N)N)cc1,"inconclusive: 25.7 µM [inhibitor, partial curve, poor fit]"
10,CC(C)OC=O,"inconclusive: 71 µM [inhibitor, partial curve]"
11,C[C@@H]1C[C@H]2O[C@@]3(O[C@@H]2C(C)(C)O)[C@H](O)[C@@]2(C)[C@@H]4CC[C@H]5C(C)(C)[C@@H](O[C@@H]6OC[C@@H](O)[C@H](O)[C@H]6O)CC[C@@]56C[C@@]46CC[C@]2(C)[C@@H]13,"inconclusive: 49.6 µM [inhibitor, partial curve]"
12,COC(=O)C1=C(C)NC(C)=C(C(=O)O[C@@H]2CCCN(Cc3ccccc3)C2)[C@@H]1c1cccc([N+](=O)[O-])c1,"inconclusive: 30.9 µM [inhibitor, partial curve]"
13,CCCCOc1ccc(C(=O)CCN2CCCCC2)cc1,inactive
14,Cc1cccc(C(C)(C)C)c1O,"inconclusive: 44.8 µM [inhibitor, partial curve]"
15,CCOC(=O)C1=C[C@]2(CC)CCCN3CCc4c(n1c1ccccc41)[C@@H]32,inactive

# Target: Voltage-gated inwardly rectifying potassium channel KCNH2 (Homo sapiens) (UniProt Q12809)
# Chain of UniProt Q12809 (Q12809 whole entry, looked up): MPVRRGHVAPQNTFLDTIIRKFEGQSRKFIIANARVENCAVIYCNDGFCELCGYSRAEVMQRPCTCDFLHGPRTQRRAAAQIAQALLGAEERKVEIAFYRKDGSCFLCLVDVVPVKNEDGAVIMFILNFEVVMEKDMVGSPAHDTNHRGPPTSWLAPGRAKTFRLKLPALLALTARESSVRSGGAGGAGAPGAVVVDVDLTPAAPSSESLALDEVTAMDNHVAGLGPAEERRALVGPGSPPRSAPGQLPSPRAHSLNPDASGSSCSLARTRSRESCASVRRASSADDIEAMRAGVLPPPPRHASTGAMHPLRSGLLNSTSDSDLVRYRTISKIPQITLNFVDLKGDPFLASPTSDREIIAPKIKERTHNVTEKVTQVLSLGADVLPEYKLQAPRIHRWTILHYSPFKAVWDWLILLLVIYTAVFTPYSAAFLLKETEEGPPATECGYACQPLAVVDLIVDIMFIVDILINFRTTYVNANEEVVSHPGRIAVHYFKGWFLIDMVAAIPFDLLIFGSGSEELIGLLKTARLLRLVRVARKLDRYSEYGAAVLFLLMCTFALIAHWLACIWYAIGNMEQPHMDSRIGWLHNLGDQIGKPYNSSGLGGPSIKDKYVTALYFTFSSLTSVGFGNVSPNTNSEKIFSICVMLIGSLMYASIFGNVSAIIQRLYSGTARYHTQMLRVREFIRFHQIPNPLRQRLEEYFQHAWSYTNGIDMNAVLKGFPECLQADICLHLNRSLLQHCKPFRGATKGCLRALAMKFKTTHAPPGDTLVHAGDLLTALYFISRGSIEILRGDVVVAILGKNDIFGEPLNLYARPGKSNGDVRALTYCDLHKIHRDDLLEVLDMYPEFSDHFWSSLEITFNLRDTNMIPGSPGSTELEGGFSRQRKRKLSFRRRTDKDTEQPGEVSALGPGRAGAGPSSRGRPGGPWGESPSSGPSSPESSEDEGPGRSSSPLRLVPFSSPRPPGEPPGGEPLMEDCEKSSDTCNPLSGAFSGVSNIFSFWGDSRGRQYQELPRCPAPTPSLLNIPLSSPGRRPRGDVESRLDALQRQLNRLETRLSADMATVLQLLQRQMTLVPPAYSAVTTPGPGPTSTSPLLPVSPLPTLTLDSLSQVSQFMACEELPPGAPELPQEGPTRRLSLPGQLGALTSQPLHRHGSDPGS
# Test: Human Ether-a-go-go-Related Gene (hERG) channel small molecule antagonists: fluorescence cell-based qHTS assay (AID 1671200)
# Settings: hERG-U2OS cells, FluxOR thallium flux fluorescence; series mostly up to 76.8 µM
# Outline: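 Channel function was assessed by thallium flux. Cells seeded the previous day and kept at 37 C took up FluxOR II dye over 1 h in the dark at room temperature, then sat another 10 min before stimulation.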
row,Compound,Potency
1,CCCCC/C=C\C/C=C\CCCCCCCC(=O)NC(C)c1ccccc1 (centres undefined),"inconclusive: 13.4 µM [inhibitor, partial curve, poor fit]"
2,CCCCc1cc2ccccc2c(OCCN(C)C)n1,active: 3.38 µM
3,COC(=O)C1=C(C)NC(C)=C(C(=O)O[C@@H]2CCCN(Cc3ccccc3)C2)[C@@H]1c1cccc([N+](=O)[O-])c1,"inconclusive: 10.7 µM [inhibitor, partial curve]"
4,CCCCOc1ccc(C(=O)CCN2CCCCC2)cc1,"inconclusive: 21.3 µM [inhibitor, partial curve]"
5,O=C(N/N=C/c1ccc([N+](=O)[O-])o1)c1ccc(O)cc1,"inconclusive: 26.8 µM [inhibitor, single point]"
6,CCOC(=O)C1=C[C@]2(CC)CCCN3CCc4c(n1c1ccccc41)[C@@H]32,active: 0.151 µM

# Target: Cytochrome P450 3A4 (Homo sapiens) (UniProt P08684)
# Chain of UniProt P08684 (P08684 whole entry, looked up): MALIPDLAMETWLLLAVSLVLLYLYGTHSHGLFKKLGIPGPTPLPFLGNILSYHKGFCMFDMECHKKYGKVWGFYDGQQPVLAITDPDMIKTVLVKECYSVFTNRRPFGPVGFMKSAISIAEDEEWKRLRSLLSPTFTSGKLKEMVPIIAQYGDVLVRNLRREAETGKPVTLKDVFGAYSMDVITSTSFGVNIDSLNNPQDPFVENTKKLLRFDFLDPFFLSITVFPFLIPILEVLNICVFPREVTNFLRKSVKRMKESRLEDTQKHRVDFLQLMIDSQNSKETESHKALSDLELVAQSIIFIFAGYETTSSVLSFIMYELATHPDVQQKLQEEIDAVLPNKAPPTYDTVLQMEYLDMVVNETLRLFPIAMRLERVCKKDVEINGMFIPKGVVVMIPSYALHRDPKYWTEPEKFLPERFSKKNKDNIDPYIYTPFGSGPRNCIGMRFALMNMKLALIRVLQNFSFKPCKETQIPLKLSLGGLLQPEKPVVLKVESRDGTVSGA
# Test: Cytochrome P450 Family 3 Subfamily A Member 4 (CYP3A4) small molecule antagonists: luciferase reporter qHTS assay (AID 1671201)
# Settings: P450-Glo CYP3A4 enzyme, luciferin luminescence, 1 h; series mostly up to 115 µM
# Outline: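 Compounds in DMSO were pin-transferred onto CYP3A4 enzyme-substrate mix and held 10 min at room temperature. NADPH regenerating solution started the reaction for 1 h; luciferin detection reagent stopped it, and luminescence was read after 20 min.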
row,Compound,Potency
1,CC(=O)c1ccccc1,"inconclusive: 11.7 µM [inhibitor, full curve, poor fit]"
2,CCN(CCCc1ccccc1)CCCc1ccccc1,inactive
3,C=CCOC(=O)/C=C\C(=O)OCC=C,"inconclusive: 36.2 µM [inhibitor, partial curve]"
4,CCCCCCCC#N,inactive
5,CCCOC(=O)c1cc(O)c(O)c(O)c1,"inconclusive: 63 µM [inhibitor, partial curve, poor fit]"
6,C[C@@H]1C[C@H]2O[C@@]3(O[C@@H]2C(C)(C)O)[C@H](O)[C@@]2(C)[C@@H]4CC[C@H]5C(C)(C)[C@@H](O[C@@H]6OC[C@@H](O)[C@H](O)[C@H]6O)CC[C@@]56C[C@@]46CC[C@]2(C)[C@@H]13,"inconclusive: 0.883 µM [inhibitor, full curve, poor fit]"
7,O=C(N/N=C/c1ccc([N+](=O)[O-])o1)c1ccc(O)cc1,inactive
8,Cc1cccc(C(C)(C)C)c1O,"inconclusive: 39.9 µM [inhibitor, partial curve]"
